This sample is rich in variants without activity.
B1: TPR 5TU (parent)
chain: GGAUCUUCUCGAUCUAACAAAAAAGACAAAUCUGCCACAAAGCUUGAGAGCAUCUUCGGAUGCAGAGGCGGCAGCCUUCGGUGGCGCGAUAGCGCCAACGUUCUCAACUAUGACACGCAAAACGCGUGCUCCGUUGAAUGGAGUUUAUCAUG

Variants of: B1
Test: polymerase ribozyme fitness, log enrichment relative to wild type (log ratio); higher = more active; in vitro selection for triplet polymerase activity
Summary of the method: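 To select mutant libraries of each subunit of a heterodimeric triplet polymerase ribozyme, built by PCR and transcribed, each was annealed with a biotinylated primer, partner subunit and triplets, then incubated frozen at −7 °C. Extended constructs were gel-excised, captured on streptavidin beads and amplified by RT-PCR, in one round carried out in triplicate. Illumina sequencing of input and output libraries kept genotypes with ≥10 input reads and ≥1 read per output. Fitness is the base-2 logarithm of genotype enrichment relative to wild-type enrichment, from inverse-variance-weighted replicate averages.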

Variant | polymerase ribozyme fitness (log ratio)
C57G G59U C85U | -1.11
U56A U78G C93G | ≤ -4.2
U56G C69A G81C U139A | ≤ -4.2
U56A C79A G92A C95A C96G U148A | ≤ -4.2
C57A U90G | ≤ -4.2
C57A U102G | -1.73
C57A A66C U135G | ≤ -4.2
U56A G59C U144G | 2.23
U55G G84U A98C U151C | ≤ -4.2
U55G A73U A122G G126C | -1.69
U55G C57G U61C U77A U148C | ≤ -4.2
C57G G58C A137C | -3.85
C57A G84U | -1.29
C57G G86C | -3.04
U56C G59U C85A A121U A137U U146G | ≤ -4.2
U56A C95U A98U | -1.6
U56A C57G C87A A119G G126A | ≤ -4.2
C57A C87A G92U C95A A138C | ≤ -4.2
U55G C85A | -2.4
U56C U78G G80A G84C | ≤ -4.2
C57G G67U G86U A91G | ≤ -4.2

Variant | polymerase ribozyme fitness (log ratio)
U56A C95U C96G A110G A119G G152U | -4.13
C57A C114U | -1.45
U56A C79U C85A | ≤ -4.2
U56G G59U C87A A106G A107G C116U G140C | ≤ -4.2
U56A C85G A115G U148A | ≤ -4.2
U56A U61A C72G C129U U134G G141C | ≤ -4.2
U55G U56G G67C G68A G117A | ≤ -4.2
C57A A91G | -2.76
C57G G88A C96U U139C A142G | ≤ -4.2
U56A A91U U127C | ≤ -4.2
C57G U90C C93U C99A U134C | ≤ -4.2
C57G G100U U135G U148A | ≤ -4.2
U56A G84A U90C C125A | ≤ -4.2
C57G A89G C93A | ≤ -4.2
C57A G68A G70U G84U C87A G126U | ≤ -4.2
U56A C57A G84A | -0.56
U56A A91U A121C | ≤ -4.2
C57G G84U A89C G112C U139C C149A | ≤ -4.2
U55G G143C | -2.79
U56A G58U A73U C76U U78G G88A C95U C105U A122U C132G | ≤ -4.2
C57A G71C G88C C108U | ≤ -4.2

Variant | polymerase ribozyme fitness (log ratio)
U56A C85A U102G U145A | ≤ -4.2
U55C U61G U82G G88U C95U C103A C125A U151A | ≤ -4.2
U56A G58C C93U U127G U145A | -3.83
U56A C76A A119U A121C G126U | -1.11
C57A A113C A119U | -1.37
C57A G92U C105G | -1.2
C57A U90A A91U A138U | ≤ -4.2
C57G C76A C87G C108U G136U G143C C149U | ≤ -4.2
U56G C85G | -2.54
U56A G88U U104C G124U | ≤ -4.2
C57A C95U C149U | -0.536
C57G G58A G86U | -1.7
C57A A89C G94U A142G | -3.19
U56A G94U C95A G143U | -3.39
U56G G84U A97U C99G G133U | ≤ -4.2
U56A G84A | -1.06
C57A U78A U90A U101A G117U | ≤ -4.2
U55G A64G G67C | ≤ -4.2
C57A C96U G124A A150C | -3.99
C57A A64C C85A C95U U130A A147U | ≤ -4.2
U56G C93U A110U | -3.71

Variant | polymerase ribozyme fitness (log ratio)
U56C G65A G84A A91U | ≤ -4.2
U56A C57G A66U G84A A98G C103A C125A | ≤ -4.2
C57A G83C G141A | -0.777
U55G C87A A120C A122C G124A C132U U148G | ≤ -4.2
U56C G74U U90A A91U C108G A119C G124C U151G | ≤ -4.2
U56G C108A | ≤ -4.2
C57U A64U C114U | ≤ -4.2
C57G G58U A137G G143A | -2.87
U56G C87A C103U C114U C125U | ≤ -4.2
U55G C57G C95U C96A C118G | -2.53
U56A C87A C105G G128C | ≤ -4.2
C57A A138C | -3.77
C57G G59U G62A A66G C116U A122C | ≤ -4.2
U56A G68C C79U | ≤ -4.2
U56A G88C A142U | ≤ -4.2
U56C C75A G88C C99G | ≤ -4.2
U56A A89U C96G | -1
U55G G70A A97G U151G | ≤ -4.2
C57A U82A A138U | ≤ -4.2
U56G G68U | ≤ -4.2

From the RNAGym collection of RNA variant scans (doi:10.1073/pnas.2313332121)
